# Results reported in PubChem BioAssay AID488969 (Vanderbilt High Throughput Screening Facility, 2010).
# In all, about 110,000 compounds were measured (“z-score”: median about -0.1, highest 2% from about 2 on). Some of the results follow.
# Target: Metabotropic glutamate receptor 8 (Rattus norvegicus) (UniProt P70579)
# Experiment: mGluR8 Gi/Go-coupled signaling modulation – cell-based, rat, thallium flux, HTS, primary screen (AID 488969)
# Conditions: HEK293 rat mGluR8, GIRK (G protein-gated inwardly rectifying potassium channel) thallium flux, FluoZin2; at 10 µM; stronger effect = higher value; submaximal glutamate (EC20) added with thallium
# UniProt P70579, sequence (P70579 whole entry, looked up): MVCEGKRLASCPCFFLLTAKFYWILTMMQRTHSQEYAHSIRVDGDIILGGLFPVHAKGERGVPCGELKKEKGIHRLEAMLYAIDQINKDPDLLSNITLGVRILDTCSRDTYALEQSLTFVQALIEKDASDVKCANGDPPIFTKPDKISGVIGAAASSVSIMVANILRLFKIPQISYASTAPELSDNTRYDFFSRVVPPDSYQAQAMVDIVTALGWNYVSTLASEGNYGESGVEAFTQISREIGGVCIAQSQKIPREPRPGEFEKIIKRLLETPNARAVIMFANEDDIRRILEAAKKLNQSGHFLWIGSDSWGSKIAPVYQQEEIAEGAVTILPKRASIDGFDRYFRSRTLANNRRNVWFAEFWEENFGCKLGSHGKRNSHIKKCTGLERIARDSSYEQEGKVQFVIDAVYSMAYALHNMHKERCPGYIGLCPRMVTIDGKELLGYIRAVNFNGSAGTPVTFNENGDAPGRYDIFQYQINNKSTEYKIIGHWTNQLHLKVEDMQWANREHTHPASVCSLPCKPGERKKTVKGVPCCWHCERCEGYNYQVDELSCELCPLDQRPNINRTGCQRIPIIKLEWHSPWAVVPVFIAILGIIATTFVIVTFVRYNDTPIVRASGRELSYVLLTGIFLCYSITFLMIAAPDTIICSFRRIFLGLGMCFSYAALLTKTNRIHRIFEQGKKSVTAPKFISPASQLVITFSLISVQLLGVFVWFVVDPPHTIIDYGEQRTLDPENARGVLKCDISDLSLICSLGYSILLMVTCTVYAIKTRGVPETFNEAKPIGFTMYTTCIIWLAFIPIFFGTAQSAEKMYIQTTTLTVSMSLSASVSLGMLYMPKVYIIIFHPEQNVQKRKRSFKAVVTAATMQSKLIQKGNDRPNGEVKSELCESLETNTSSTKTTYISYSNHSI
row,Structure (SMILES),z-score
1,COc1cccc(C2=NOC(C(=O)NCc3cccs3)C2)c1 (stereo not given),-0.0794
2,Cc1cc([N+](=O)[O-])nn1Cc1ccc(C(=O)N/N=C/c2ccccc2)cc1,-0.109
3,CCCCn1c(NC(=O)C2CCCCC2)nc2ccccc21,1.11
4,CCOC(=O)C(NC(C)=O)(Nc1ccc(S(N)(=O)=O)cc1)C(F)(F)F (stereo not given),0.0525
5,COCCCn1c(SCC(=O)Nc2ccc(NC(=O)c3ccco3)c(OC)c2)nc2ccccc2c1=O,-0.137
6,COC(=O)C1(C(=O)OC)Sc2ccccc2C1=O,0.914
7,C/C(=N\NC(=O)c1ccc(N(C)C)cc1)c1ccc(C)c(C)c1,0.0219
8,O=C(CSc1nnc2scc(-c3ccccc3)n12)NCC1CCCO1 (stereo not given),0.786
9,Nc1ncc2c(n1)CC(c1ccco1)CC2=O (stereo not given),-0.0173
10,CCOc1ccccc1NC(=O)CN1C(=O)COc2ccc(Cl)cc21,-0.361
11,Cc1cc(NS(=O)(=O)c2ccccc2)no1,-0.147
12,Cc1ccc(SCC(=O)n2nc(C)cc2C)cc1,-0.158
13,COc1cc(OC)cc(-c2nc3cc(C)ccc3o2)c1,1.19
14,COCCCNC(=S)NNC(=O)c1csc2ccccc12,-0.0918
15,CCOCCCNCC(=O)NC1(C)C2CCC(C2)C1(C)C (stereo not given),-0.581
16,CCN(CC)CCN=C1CCCc2ccccc2N1,-0.97
17,CC(C)C1N=C(c2ccc3c(c2)OCO3)CC(c2ccccc2O)N1 (stereo not given),-0.117
18,CCOC(=O)C1=C(C)NC(C)=C(C(=O)OCC)C1/C=C/c1ccccc1,-0.151
19,C/C(Cn1cnc([N+](=O)[O-])n1)=N\NC(=O)c1ccccc1F,-0.585
20,CCn1cc(C(=O)N2CCCC2)c(=O)c2cc(S(=O)(=O)N3CCOCC3)ccc21,0.161
21,COC(=O)c1cc(NC(=O)/C=C/c2ccc3c(c2)OCO3)cc(C(=O)OC)c1,0.169
22,O=c1[nH]ncc(N2CCCCC2)c1Cl,-0.0583
23,CC(C)C(=O)NC(=S)Nc1nnn(C)n1,0.169
24,S=c1[nH]nc(-c2ccc(Cl)cc2)n1CC1CCCO1 (stereo not given),-0.0607
25,COc1ccccc1-c1nc(-c2ccc(C)nc2OC)no1,0.471

row,Structure (SMILES),z-score
1,COc1ccc2[nH]cc(CCCN3C(=O)c4ccccc4C3=O)c2c1,-0.421
2,COCCNS(=O)(=O)c1ccc2c(c1)n(C)c(=O)n2C,-0.36
3,O=C(Cc1cccc2ccccc12)Nc1ccc(OC(F)F)c(Cl)c1,-0.229
4,O=S(=O)(c1ccc(OCC(O)CN2CCC(Cc3ccccc3)CC2)cc1)N1CCOCC1 (stereo not given),0.46
5,CC(=O)N(CCC(c1ccccc1)c1ccco1)Cc1cccs1 (stereo not given),-0.43
6,CCCOC(=O)Cc1c(O)c2ccccc2[nH]c1=O,0.0438
7,Cn1c(=O)oc2cc(S(=O)(=O)N3CCCC3)ccc21,0.418
8,O=C(c1cccs1)N1CCC(Cc2ccccc2)CC1,-0.883
9,COc1ccccc1N1CCN(C(=O)Cn2nnc(-c3ccncc3)n2)CC1,-0.132
10,COc1ccc(C(=O)Nc2ccc(S(=O)(=O)NC(C)=O)cc2)cc1,0.789
11,CCC(Sc1nc2ccccc2c(=O)n1CCN1CCOCC1)C(=O)NCc1cccnc1 (stereo not given),0.584
12,O=C(CN1CCN(c2ccccn2)CC1)Nc1ccccc1,-0.124
13,CCCCNCc1cccn1-c1ccccc1,0.442
14,O=C(NNC(=S)NCc1ccco1)c1ccc(Cl)s1,-0.1
15,Cc1ccccc1CN(c1ccc(C(N)=O)cc1)S(C)(=O)=O,-0.0764
16,O=C(c1ccccc1)c1ccc2nc[nH]c2c1,-0.0172
17,CCOC(=O)CCc1c(C)nc(SCCCn2c(=O)[nH]c3ccccc32)c(C#N)c1C,0.244
18,COc1ccc(/C(O)=C2/C(=O)C(=O)N(CCN(C)C)C2c2ccc(F)cc2)cc1Cl (stereo not given),-0.506
19,O/N=C(\c1ccc(Cl)cc1)c1ncc(C(F)(F)F)cc1Cl,-0.192
20,CCCC12CN(C(=O)c3ccc(OC)cc3)CC(C)(CN(C(=O)c3ccc(OC)cc3)C1)C2=O,-0.972
21,CCOC(=O)c1c(C)oc2c1c(C(c1cccnc1)N1CCCCC1)c(O)c1ccccc12 (stereo not given),0.027
22,Cc1nc2cc(CO)ccc2s1,-0.117
23,CC1=C/C(=C/N(C)c2ccccc2)C(=O)S1,-0.177
24,O=C(N/N=C/c1cccs1)c1ccc2c(c1)OCO2,0.898
25,COc1ccc2[nH]c3c(N4CC(C)OC(C)C4)ncnc3c2c1 (stereo not given),-0.534

row,Structure (SMILES),z-score
1,Nc1c(C(=O)CCC(=O)O)oc2ccc(Cl)cc12,-0.818
2,CC(Sc1nnc(N)s1)c1ccccc1Cl (stereo not given),-0.255
3,Cc1ccc(NC(=O)COC(=O)c2ccc3c(c2)NC(=O)C2CCCN32)cc1 (stereo not given),-0.114
4,CCOC(=O)C1=C(C)SC2=NS(=O)(=O)CCN21,-0.0485
5,CCN(c1ccccc1)S(=O)(=O)c1ccc(N)c(OC)c1,0.221
6,COc1cccc(NC(=O)CCP(C)(=O)O)c1,-0.0855
7,Cc1ccc(S(=O)(=O)Nc2cccc(-c3cn4ccsc4n3)c2)cc1,-0.494
8,Cc1ccc2nc(-c3ccc(NC(=O)COC(=O)c4cncc(Br)c4)cc3)sc2c1,0.0616
9,Cc1ccc(CSCCNS(=O)(=O)c2ccc(C)cc2)cc1,-0.638
10,O=C(c1ccccc1F)N(Cc1ccccc1)C1CCS(=O)(=O)C1 (stereo not given),-0.0428
11,CCCCC(=O)Nc1cccc(-c2cn3ccccc3n2)c1,-0.223
12,O=C(Nc1cc(Cl)ccc1N1CCCCC1)c1cccs1,-0.311
13,Cc1nn(-c2ccccc2)c2sc(C(=O)N3CCOCC3)cc12,-0.72
14,CCCCCCCOC1(c2ccccc2)OC(=O)c2ccccc21 (stereo not given),-0.11
15,COc1ccc(-c2cn3cccnc3n2)cc1Br,-0.109
16,CCOC(=O)c1c(N)c(C#N)c2n1CCCCC2,0.122
17,CC(C)Sc1nc2c(c(=O)n1-c1ccc(F)cc1)SCC2,-0.98
18,Cc1ccc(-c2noc(CSc3nnnn3-c3ccccc3)n2)cc1,-0.581
19,O=S(=O)(CC(CN1CCCC1)N1CCCC1)c1ccc2ccccc2c1 (stereo not given),-1.7
20,O=C(Nc1cccc(C(F)(F)F)c1)C(SCCO)c1ccccc1 (stereo not given),-0.0903
21,CCC(=O)NCCc1nc2cc(NC(=O)c3ccccc3OC)ccc2n1C,-0.174
22,Cc1ccccc1CS(=O)(=O)c1nnc([C@H](Cc2ccccc2)NC(=O)OC(C)(C)C)o1,-1.16
23,Cc1ccc(Oc2nnc(-c3cccs3)c3ccccc23)cc1,-0.167
24,CC(=O)Nc1ccc(OC(=O)c2cc3cc(Br)ccc3oc2=O)cc1,-0.0759
25,CC(C)(C)c1cc[n+](/C(C(=S)NC2CC2)=C(/[O-])c2ccc(Cl)s2)cc1,-0.275
